The source of these data is article PMC6555833, “APC/C^CDH1 synchronizes ribose-5-phosphate levels and DNA synthesis to cell cycle progression” (Nature Communications, 2019).

No constants are given. Whether binding was seen depends on the method and setting.

Experiment [1] concerns the target purified recombinant TKTL1 (human) (UniProt P51854). The experiment in a line: native gel or EMSA; native gel electrophoresis of TKT, TKTL1-TKT and TKTL1; both purified. (In general: In EMSA bound probe runs differently from free probe, usually more slowly.)
For experiment [2] the target is unchanged. Put plainly: SEC; Superdex 200 in cold PBS (4 °C), 0.4 mL/min; fractions analysed by western blot; markers MSH6 (152 kDa) and BSA (66 kDa); heterodimer purified beforehand by nickel resin then FLAG beads; both purified.

B1: purified recombinant TKTL1 (natural protein, human, UniProt P51854 1-596, looked up)
chain: MADAEARAEFPEEARPDRGTLQVLQDMASRLRIHSIRATCSTSSGHPTSCSSSSEIMSVLFFYIMRYKQSDPENPDNDRFVLAKRLSFVDVATGWLGQGLGVACGMAYTGKYFDRASYRVFCLMSDGESSEGSVWEAMAFASYYSLDNLVAIFDVNRLGHSGALPAEHCINIYQRRCEAFGWNTYVVDGRDVEALCQVFWQASQVKHKPTAVVAKTFKGRGTPSIEDAESWHAKPMPRERADAIIKLIESQIQTSRNLDPQPPIEDSPEVNITDVRMTSPPDYRVGDKIATRKACGLALAKLGYANNRVVVLDGDTRYSTFSEIFNKEYPERFIECFMAEQNMVSVALGCASRGRTIAFASTFAAFLTRAFDHIRIGGLAESNINIIGSHCGVSVGDDGASQMALEDIAMFRTIPKCTIFYPTDAVSTEHAVALAANAKGMCFIRTTRPETMVIYTPQERFEIGQAKVLRHCVSDKVTVIGAGITVYEALAAADELSKQDIFIRVIDLFTIKPLDVATIVSSAKATEGRIITVEDHYPQGGIGEAVCAAVSMDPDIQVHSLAVSGVPQSGKSEELLDMYGISARHIIVAVKCMLLN
notes: wild-type transketolase-like protein 1 (TKTL1), human; in vector pSJ3; also called TKTL1 monomer; source: E. coli BL21 (DE3)pLysS, purified (nickel column)
With B1, the binding result in experiment [1] and in experiment [2] was “no binding” in each case.
